{
  "source": "paper PMC4336329",
  "about": "(PLoS ONE, 2015)",
  "note": "Hit rate of the full screen: of about 310,000 compounds, about 2,200 (0.71%) showed an effect of 50% or more. The effect is printed as a negative number. The list shows a part of the results.",
  "data": [
    {"molecular_target": "human ether-à-go-go-related gene (hERG) potassium channel (human, UniProt Q12809)", "sequence (Q12809 whole entry, looked up)": "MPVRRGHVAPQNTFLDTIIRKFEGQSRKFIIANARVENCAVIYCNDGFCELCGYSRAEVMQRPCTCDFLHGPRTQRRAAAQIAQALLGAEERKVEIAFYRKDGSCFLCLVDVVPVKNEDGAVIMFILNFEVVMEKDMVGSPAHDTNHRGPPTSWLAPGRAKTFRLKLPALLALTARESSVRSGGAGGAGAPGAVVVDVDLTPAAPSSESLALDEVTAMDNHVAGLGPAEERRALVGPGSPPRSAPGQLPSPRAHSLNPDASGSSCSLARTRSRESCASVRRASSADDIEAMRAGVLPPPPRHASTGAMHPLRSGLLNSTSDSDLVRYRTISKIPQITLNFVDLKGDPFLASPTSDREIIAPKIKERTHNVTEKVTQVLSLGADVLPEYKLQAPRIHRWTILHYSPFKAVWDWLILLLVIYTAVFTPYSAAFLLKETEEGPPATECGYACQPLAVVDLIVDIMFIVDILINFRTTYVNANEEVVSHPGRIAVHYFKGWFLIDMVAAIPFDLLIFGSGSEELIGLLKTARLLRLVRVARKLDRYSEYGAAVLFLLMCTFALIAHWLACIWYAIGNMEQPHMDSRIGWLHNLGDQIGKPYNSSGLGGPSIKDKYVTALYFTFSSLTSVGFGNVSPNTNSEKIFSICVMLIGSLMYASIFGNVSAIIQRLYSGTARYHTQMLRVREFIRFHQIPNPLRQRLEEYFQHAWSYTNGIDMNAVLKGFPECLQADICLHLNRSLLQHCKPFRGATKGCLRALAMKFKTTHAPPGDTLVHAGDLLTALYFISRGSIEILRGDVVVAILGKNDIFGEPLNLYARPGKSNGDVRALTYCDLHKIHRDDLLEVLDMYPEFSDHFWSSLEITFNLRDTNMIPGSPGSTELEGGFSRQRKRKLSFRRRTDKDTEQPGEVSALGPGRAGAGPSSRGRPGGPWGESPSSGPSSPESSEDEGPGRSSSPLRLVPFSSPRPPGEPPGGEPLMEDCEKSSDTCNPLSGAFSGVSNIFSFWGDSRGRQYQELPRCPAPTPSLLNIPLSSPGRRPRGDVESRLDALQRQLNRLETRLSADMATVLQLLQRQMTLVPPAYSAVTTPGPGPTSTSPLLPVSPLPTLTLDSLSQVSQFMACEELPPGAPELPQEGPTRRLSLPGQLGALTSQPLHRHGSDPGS", "assay": "primary screen, population patch clamp on CHO cells stably expressing hERG", "units": {"hERG current change (%, negative = inhibition) at 1uM": "%"}, "values": [
      {"molecule": "Cc1cc(N2CCOCC2)nc2ccc(NC(=S)NCCC(C)C)cc12", "hERG current change (%, negative = inhibition) at 1uM": -11.4},
      {"molecule": "CSCCC(NS(=O)(=O)c1ccc(Cl)cc1)C(=O)OCC(=O)c1c(C)[nH]c2ccccc12", "note": "(centres unmarked)", "hERG current change (%, negative = inhibition) at 1uM": 9.1},
      {"molecule": "CCn1c2ccccc2c2nnc(SCC(=O)OCN3C(=O)c4ccccc4C3=O)nc21", "hERG current change (%, negative = inhibition) at 1uM": 2.4},
      {"molecule": "CCOC(=O)c1csc(NC(=O)COc2ccc(Cl)cc2Cl)n1", "hERG current change (%, negative = inhibition) at 1uM": 3.46},
      {"molecule": "O=C(Nc1cccc(Cl)c1)Nc1nnc(-c2ccccc2)o1", "hERG current change (%, negative = inhibition) at 1uM": 11.7},
      {"molecule": "O=C(O)c1cccc(CN2C(=O)SC(Nc3ccccc3)C2=O)c1", "note": "(centres unmarked)", "hERG current change (%, negative = inhibition) at 1uM": 6.58},
      {"molecule": "C=CCN(C(=O)c1csnn1)C(C(=O)NCc1ccc(F)cc1)c1ccc(F)cc1", "note": "(centres unmarked)", "hERG current change (%, negative = inhibition) at 1uM": 1.15},
      {"molecule": "Cc1ccc(C(=O)Nc2cccnc2)cc1NC(=O)c1ccco1", "hERG current change (%, negative = inhibition) at 1uM": 7.5},
      {"molecule": "CCCc1cc(C(=O)Nc2cc(OC)c(Cl)cc2OC)no1", "hERG current change (%, negative = inhibition) at 1uM": 20.2},
      {"molecule": "Cc1ccccc1NCCNc1ccccc1C", "hERG current change (%, negative = inhibition) at 1uM": 3.13},
      {"molecule": "CCOC(=O)c1cn[nH]c1C(F)(F)F", "hERG current change (%, negative = inhibition) at 1uM": 11.9},
      {"molecule": "COCCNC(=O)Cn1cnc2c(cnn2-c2ccc(C)cc2)c1=O", "hERG current change (%, negative = inhibition) at 1uM": -0.31},
      {"molecule": "O=C(c1ccc(Br)cc1)N(c1ccccn1)C1CCCCC1", "hERG current change (%, negative = inhibition) at 1uM": 5.08},
      {"molecule": "CCC(=O)N(Cc1ccc(C)cc1)Cc1cc2cc3c(cc2[nH]c1=O)OCO3", "hERG current change (%, negative = inhibition) at 1uM": 0.914},
      {"molecule": "CSc1cccc(NC(=O)CC(C)n2ccnc2)c1", "note": "(centres unmarked)", "hERG current change (%, negative = inhibition) at 1uM": 11.5},
      {"molecule": "CCc1nnc(NC(=O)c2ccc(NC(=O)C(C)C)cc2)s1", "hERG current change (%, negative = inhibition) at 1uM": 12},
      {"molecule": "CCOC(=O)C1(Cc2cccc(OC)c2)CCCN(S(=O)(=O)c2cccnc2)C1", "note": "(centres unmarked)", "hERG current change (%, negative = inhibition) at 1uM": -10.1},
      {"molecule": "COc1cccc(CC2(CO)CCCN(Cc3ccc(CO)o3)C2)c1", "note": "(centres unmarked)", "hERG current change (%, negative = inhibition) at 1uM": -1.35},
      {"molecule": "O=C(c1ncc[nH]1)c1ccccc1C(=O)N1CCOCC1", "hERG current change (%, negative = inhibition) at 1uM": 7.24},
      {"molecule": "Cc1cc(NC(=O)C2CCCCC2)nc2c1c(=O)oc1ccccc12", "hERG current change (%, negative = inhibition) at 1uM": 4.97},
      {"molecule": "CC(CCc1ccccc1)NC(=O)c1ccc(F)cc1", "note": "(centres unmarked)", "hERG current change (%, negative = inhibition) at 1uM": 12.2},
      {"molecule": "COC(=O)c1c(C)[nH]c(C)c1C(C)=O", "hERG current change (%, negative = inhibition) at 1uM": 12.3},
      {"molecule": "CN(C)C(=O)CSc1n[nH]c(-c2ccco2)n1", "hERG current change (%, negative = inhibition) at 1uM": 6.67},
      {"molecule": "Cc1nnnn1/C(=C\\c1ccccc1)C(=O)OCC(=O)NC1CCCCC1", "hERG current change (%, negative = inhibition) at 1uM": 11},
      {"molecule": "Cc1ccc(C)c(NNC(=O)C(=O)NNc2cc(C)ccc2C)c1", "hERG current change (%, negative = inhibition) at 1uM": 13.5},
      {"molecule": "O=C(Nc1ccc(N2CCN(C(=O)c3ccccc3)CC2)cc1)c1ccc2c(c1)OCCO2", "hERG current change (%, negative = inhibition) at 1uM": 10.6}
    ]}
  ]
}
